# Test results reported in PubChem BioAssay AID504832 (National Center for Advancing Translational Sciences (NCATS), 2011).
# The whole screen tested about 310,000 compounds, of which about 18,000 (5.8%) were called active. This list was built around the results that the source calls inconclusive (neither active nor inactive); the mix of calls is not that of the screen. Calls follow the shape of the dose curve; as a rule, active = well fitted inhibition curve with a large enough effect; inconclusive = small, poorly fitted or top-dose-only effect, or another doubt; inactive = no such curve, though single readings can be large or run the other way. Potencies of inconclusive entries are left out as doubtful fits.
# Assay: Primary qHTS for delayed death inhibitors of the malarial parasite plastid, 48 hour incubation
# Settings: P. falciparum luciferase growth in erythrocytes; series mostly up to 28.7 µM; activity change, negative = inhibition: at the top concentration
# Summary of the method: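 Growth was read as firefly luciferase luminescence after a 48 h, 37 C, 5% CO2 exposure of compounds to reporter-bearing P. falciparum cultures (0.1% parasitemia, 2% hematocrit final) in Albumax-supplemented RPMI 1640.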
# % is scaled to controls: 0 for no effect and ±100 for the full control effect; potency is read from the fitted curve at half-maximal effect; tags tell the direction and shape of the fitted curve.
Structure (SMILES),Potency,"activity change, negative = inhibition"
COc1cccc(OC)c1OCCCCn1cnc2ccccc2c1=O,"inconclusive [inhibitor, single point]",
NC(N)=NC(N)=Nc1cccc(Cl)c1,"inconclusive [inhibitor, full curve, poor fit]",
COc1ccccc1N(Cc1cc(=O)[nH]c2ccccc12)C(=O)C(C)C,"inconclusive [inhibitor, single point]",
CCCCNC(=O)CC1N=C2c3ccccc3N=C(SCC(=O)Nc3ccccc3OC)N2C1=O (stereo not drawn),active: 10.4 µM,
CCN(Cc1ccccc1)C(=O)Cc1ccc(OC)c(S(=O)(=O)N2CCOCC2)c1,,inactive: -15.6%
N#CC1=C(N)N(c2ccccc2)C(c2ccccc2)C1(C#N)C#N (stereo not drawn),"inconclusive [inhibitor, partial curve]",
O=C1Nc2ccccc2C(O)(C(=O)NCc2ccco2)N1c1ccccc1 (stereo not drawn),,inactive: -6.12%
O/N=C(\c1ccc(Cl)cc1)c1cc2ccccc2o1,"inconclusive [inhibitor, single point]",
Cc1sc2ncnc(NCc3cccnc3)c2c1C,,inactive: -23.4%
COCCn1c(=NC(=O)c2sc3ccccc3c2Cl)sc2cc(S(N)(=O)=O)ccc21,,inactive: 2.46%
COc1ccc2oc(C(=O)Nc3nc4ccc(S(C)(=O)=O)cc4s3)c(C)c2c1,"inconclusive [inhibitor, full curve, poor fit]",
O=C1c2ccccc2NC2CCCCC12 (stereo not drawn),active: 1.85 µM,
CNC(=O)COc1ccc(Nc2nnc(-c3ccc(C)c(S(N)(=O)=O)c3)c3ccccc23)cc1,"inconclusive [inhibitor, partial curve, poor fit]",
COc1ccc(CCNC(=O)c2cccn2C)cc1,"inconclusive [inhibitor, single point]",
O=C(CCCSc1nc2ccccc2[nH]1)NCc1ccc(Cl)cc1,"inconclusive [inhibitor, partial curve]",
CC(C)c1ccc(C2C(C#N)=C(N)N3C(=C2C#N)Sc2ccccc23)cc1 (stereo not drawn),"inconclusive [inhibitor, partial curve, poor fit]",
O=C(NC(Nc1nc2ccc([N+](=O)[O-])cc2s1)(C(F)(F)F)C(F)(F)F)c1ccccc1,active: 1.65 µM,
CCC(CC)c1nnc(NC(=O)CN2C(=O)NC3(CCCC3)C2=O)s1,"inconclusive [inhibitor, full curve, poor fit]",
N#Cc1cc2c(=O)n3ccccc3nc2n(Cc2ccco2)c1=NC(=O)c1ccco1,"inconclusive [inhibitor, single point]",
Cc1cc(C)n2nnnc2c1C#N,,inactive: 18.2%
CCC(C)c1ccccc1OCCOCCN1CCCC1 (stereo not drawn),"inconclusive [inhibitor, partial curve, poor fit]",
O=[N+]([O-])c1cccc(-c2nc(-c3ccccc3)c(-c3cccs3)[nH]2)c1,"inconclusive [inhibitor, single point]",

Structure (SMILES),Potency,"activity change, negative = inhibition"
CCn1cc(C(=O)NCCCO)c(=O)c2cc(F)c(N3CCN(C)CC3)cc21,,inactive: 5.23%
Cc1ccc(Cl)c(OC(=O)Cn2cnc3c2c(=O)n(C)c(=O)n3C)c1,"inconclusive [inhibitor, single point]",
COc1ccc(N2C(=O)CCC(C(=O)O)C2c2ccc(F)cc2)cc1 (stereo not drawn),,inactive: 4.1%
COc1ccc(C(=O)c2ccc(OC)c(Br)c2)cc1Br,,inactive: 8.3%
C/C(=N\N=C(/N)SC1CC(=O)N(c2ccc(Cl)c(Cl)c2)C1=O)c1cccs1 (stereo not drawn),"inconclusive [inhibitor, partial curve]",
CCC(C)NC(=O)c1cn(CC)c2ccc(S(=O)(=O)N(C)C)cc2c1=O (stereo not drawn),"inconclusive [inhibitor, single point]",
O=C(O)CCc1ccc(-c2ccc(F)cc2)n1CC1CCCO1 (stereo not drawn),,inactive: 2.59%
CCCC(=Nc1ccccc1OC)C1=C(O)CC(c2ccccc2)CC1=O (stereo not drawn),,inactive: -15.1%
COc1ccc([N+](=O)[O-])cc1NCC(=O)Nc1cccc(S(=O)(=O)N2CCCC2)c1,active: 5.22 µM,
Cc1ccc(N(C(=O)C2COc3ccccc3O2)C(C(=O)NC2CCCCC2)c2cn(C)nc2C)cc1 (stereo not drawn),"inconclusive [inhibitor, partial curve, poor fit]",
CCOC(=O)[C@H]1[C@H]2COc3ccc(Cl)cc3[C@@H]2N2C(=O)c3ccc(C)cc3NC(=O)[C@@]12C,"inconclusive [inhibitor, single point]",
O=C(OCc1cccc(Cl)c1)c1cc(S(=O)(=O)N2CCCCC2)ccc1N1CCOCC1,"inconclusive [inhibitor, partial curve]",
COc1ccc(NC(=O)Cn2c(-c3ccc(OC)cc3)cn(-c3ccc(C)cc3)c2=O)cc1,"inconclusive [inhibitor, single point]",
CN(C(=O)c1c[nH]c(=O)cc1C(F)(F)F)c1ccc(Cl)cc1,"inconclusive [inhibitor, single point]",
Cc1cccc(NC(=O)C2CCN(c3ncnc4c3nc3n4CCCCC3)CC2)n1,"inconclusive [inhibitor, single point]",
N#Cc1c(SCC(=O)Nc2nc3ccccc3s2)sc2c(O)cc(=O)[nH]c12,"inconclusive [inhibitor, single point]",
FC(F)(F)c1ccccc1NC(=S)NC1CCN(Cc2ccccc2)CC1,"inconclusive [inhibitor, partial curve, poor fit]",
COc1cc(-c2nc3cnccn3c2Nc2ccccc2)ccc1O,"inconclusive [inhibitor, single point]",
CCOc1ccc2[nH]cc(C(=O)NCCCN3CCOCC3)c(=O)c2c1,"inconclusive [inhibitor, partial curve, poor fit]",
O=C(CN1C(=O)/C(=C/c2ccco2)SC1=S)Nc1ccc(O)c(C(=O)O)c1,,inactive: 11%
O=C(Nc1nnc(C2=COCCO2)o1)c1cccc(F)c1,"inconclusive [inhibitor, full curve, poor fit]",
